In paper PMC4336329 (PLoS ONE, 2015):
The campaign covered roughly 310,000 compounds. About 2,200 (0.71%) showed an effect of 50% or more. The effect is printed as a negative number. The list shows a part of the results.

Biological target: human ether-à-go-go-related gene (hERG) potassium channel (human, UniProt Q12809)
Experiment: primary screen, population patch clamp on CHO cells stably expressing hERG

Sequence of human ether-à-go-go-related gene (hERG) potassium channel (Q12809 whole entry, looked up): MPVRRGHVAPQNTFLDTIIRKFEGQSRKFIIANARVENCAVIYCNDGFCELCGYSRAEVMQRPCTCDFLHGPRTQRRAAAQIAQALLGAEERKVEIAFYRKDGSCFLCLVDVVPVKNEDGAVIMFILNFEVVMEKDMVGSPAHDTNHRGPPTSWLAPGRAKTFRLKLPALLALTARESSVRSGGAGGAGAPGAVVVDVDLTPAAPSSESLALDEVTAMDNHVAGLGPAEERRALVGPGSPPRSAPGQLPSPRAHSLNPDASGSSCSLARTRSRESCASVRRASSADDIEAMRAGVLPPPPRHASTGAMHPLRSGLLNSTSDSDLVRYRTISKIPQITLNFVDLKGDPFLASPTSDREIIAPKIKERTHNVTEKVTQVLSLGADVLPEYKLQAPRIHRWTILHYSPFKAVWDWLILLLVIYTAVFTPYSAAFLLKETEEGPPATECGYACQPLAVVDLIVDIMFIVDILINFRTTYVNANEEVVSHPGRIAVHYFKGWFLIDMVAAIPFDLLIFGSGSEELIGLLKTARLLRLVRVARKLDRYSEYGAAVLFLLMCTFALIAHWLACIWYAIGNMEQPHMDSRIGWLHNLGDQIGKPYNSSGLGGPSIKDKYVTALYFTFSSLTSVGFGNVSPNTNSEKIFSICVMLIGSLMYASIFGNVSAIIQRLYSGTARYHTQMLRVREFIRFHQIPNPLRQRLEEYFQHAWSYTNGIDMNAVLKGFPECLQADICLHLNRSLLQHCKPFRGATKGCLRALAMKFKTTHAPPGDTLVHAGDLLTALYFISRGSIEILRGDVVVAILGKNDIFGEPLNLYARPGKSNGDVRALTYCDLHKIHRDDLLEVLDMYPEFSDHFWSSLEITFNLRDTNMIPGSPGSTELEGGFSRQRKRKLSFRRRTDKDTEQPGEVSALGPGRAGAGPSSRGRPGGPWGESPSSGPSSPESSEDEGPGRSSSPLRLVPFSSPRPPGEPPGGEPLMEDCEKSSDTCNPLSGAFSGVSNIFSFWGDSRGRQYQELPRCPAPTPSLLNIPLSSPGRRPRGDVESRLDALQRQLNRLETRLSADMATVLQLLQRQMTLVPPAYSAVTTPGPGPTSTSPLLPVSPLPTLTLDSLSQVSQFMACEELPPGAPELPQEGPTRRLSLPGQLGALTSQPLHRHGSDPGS

| SMILES | hERG current change (%, negative = inhibition) at 1uM [%] |
| --- | --- |
| CCN(CC(=O)NCc1ccc(Cl)cc1)C(=O)CCC(=O)c1ccc(C)cc1 | -8.96 |
| COc1cc(C(=O)N2C(=O)CCC2=O)cc(OC)c1OC | 27.6 |
| CCOC(=O)[C@H]1[C@H]2COc3ccc(Br)cc3[C@@H]2N2C(=O)c3cc(Br)ccc3NC(=O)[C@@]12C | 14.8 |
| O=C(CN(Cc1ccccc1)C(=O)CCC(=O)Nc1nccs1)NCc1ccco1 | -1.09 |
| CC1CCCN(S(=O)(=O)c2csc(C(N)=O)c2)C1 (stereo not shown) | 19.1 |
| C=CCc1ccccc1OCCSc1nc2ccc([N+](=O)[O-])cc2s1 | 13.7 |
| Cc1cc(=O)oc2cc(O[C@@H]3O[C@H](CO)[C@@H](O)[C@H](O)[C@H]3O)ccc12 | 12.5 |
| CCCCN(C(=O)CSCC(=O)Nc1ccc(OC)cc1)c1c(N)n(CCC)c(=O)[nH]c1=O | 11 |
| CCCNC(=O)N1CCCC(C(N)=O)C1 (stereo not shown) | 8.09 |
| Cc1ccc(C(=O)OCC(=O)Nc2nc(-c3ccccc3)cs2)cc1NC(=O)c1ccco1 | 1.5 |
| C=CCOc1ccc(/C=C/C(=O)OCC(=O)N2CCCc3ccccc32)cc1 | 6.24 |
| Cc1ccc(NC(=O)CN2CCN(CCN=CC3=C(O)CC(C)(C)CC3=O)CC2)cc1 | 5.61 |
| COc1cc(Br)c(C2CC(=O)Nc3cc(OC)c(OC)cc32)cc1OC (stereo not shown) | 12 |
| Cc1cc(C)c2nc(-c3ccccn3)cc(C(=O)N3CCCC3)c2c1 | 11.9 |
| COc1ccc(S(=O)(=O)NCC(c2cccnc2)N2CCN(C)CC2)cc1OC (stereo not shown) | 13.2 |
| N/C(=N\N=C\c1ccc(Br)o1)c1nonc1N | 12.4 |
| NC(=O)c1ccccc1N=Cc1cccnc1 | 5.98 |
| Cc1ccc(-n2c(CNC(=O)c3cccs3)nnc2SCC(=O)NO)cc1 | 5.89 |
| COc1ccc(CNC(=O)C2CCN(S(=O)(=O)c3cccc4nonc34)CC2)cc1 | 7.61 |
| Cc1[nH][nH]c(=O)c1C(c1ccc(Br)cc1)c1c(C)[nH][nH]c1=O.Cl | 9.75 |
| CC(=O)N1c2c(cc(Br)cc2S(=O)(=O)N2CCOCC2)CC1C (stereo not shown) | 12.8 |
| Cc1ccc(-n2ncc(C#N)c2/N=C/N(C)C)cc1 | 16.2 |
| O=C1C(N2CCOCC2)=C(n2nnc3ccccc32)C(=O)c2ccccc21 | 9.63 |
| OCCCNc1nc(-c2ccc(Cl)cc2)nnc1-c1ccccc1 | 5.01 |
| O=C1/C(=C/c2cccnc2)SC(=S)N1Nc1ccccc1 | 13.2 |
| COC(CNC(=O)c1ccc(Cn2c(=S)[nH]c3cc4c(cc3c2=O)OCO4)cc1)OC | 8.22 |
| COc1ccc(/C=C(/NC(=O)c2ccccc2)C(=O)NCCCn2ccnc2)cc1OC | 15.3 |
| CCN(CC)CCNC(=O)c1cn(CC)c2ccc(S(=O)(=O)N(C)C)cc2c1=O | 14.6 |

| SMILES | hERG current change (%, negative = inhibition) at 1uM [%] |
| --- | --- |
| COc1ccc(-c2nn(-c3ccccc3)cc2/C=N/Nc2ccc(Cl)c(C(=O)O)c2)cc1OC | 12.1 |
| O=C1NC2(CCCCCC2)C(=O)N1Cc1cccc(Cl)c1 | 9.54 |
| O=[N+]([O-])c1nn(-c2ccccc2)n(O)c1=NCCc1ccccc1 | -2.36 |
| CN(CC1CCCO1)S(=O)(=O)c1ccc(C(=O)Nc2ccc(F)cc2)cc1 (stereo not shown) | 19.2 |
| CCCOC(=O)c1ccc(NC(=O)c2ccoc2C)cc1 | -1.93 |
| CN(C)/C=N/S(=O)(=O)c1ccc(Cl)c(Cl)c1 | -10.2 |
| CCOC(=O)N1CCN(/C=C(\C#N)c2nc3ccccc3s2)CC1 | -36.7 |
| COC(=O)CCC(=O)OC1(C)C(=O)C2=CN(CC3CC3)C(c3ccc(OC)cc3)=CC2=C(Br)C1=O (stereo not shown) | 4.39 |
| COc1ccccc1CNC(=O)Cc1c[nH]c2ccccc12 | 13.4 |
| COc1ccc(-c2csc(NC(=O)CSCc3c(C)noc3C)n2)cc1OC | 7.23 |
| Oc1ccc(C[C@@H]2CNCCN2CCC23CC4CC(CC(C4)C2)C3)cc1 | -6.61 |
| Nc1ncnc(Nc2ccc(F)cc2)n1 | 7.65 |
| O=C(COC(=O)Cc1ccccc1)Nc1ccc(Cl)cn1 | 9.25 |
| Cc1ccc(NS(=O)(=O)c2cccc(C(=O)NNC(=O)NC3CCCCC3)c2)c(C)c1 | 4.16 |
| CCOC(=O)C1=C(C)OC(N)=C(C(=O)OCC)C12C(=O)Nc1ccc(Br)cc12 (stereo not shown) | -0.646 |
| CCCCNC(=O)CN1C(=O)COc2ccc(S(=O)(=O)N3CCCCCC3)cc21 | 5.74 |
| CC1(C)c2ccccc2N2CC(=O)N(CC(N)=O)C21C (stereo not shown) | 2.95 |
| O=C(NCc1ccc(Cl)cc1)c1ccc(CS(=O)Cc2cccc(Cl)c2)o1 (stereo not shown) | 5.33 |
| CCC1=NN(S(=O)(=O)c2ccc(C)cc2)C(O)(C(F)(F)F)C1 (stereo not shown) | 18.4 |
| CC1(C)C2CCC1(C)C(OC(=O)CCn1ccnc1)C2 (stereo not shown) | -7.41 |
| CC(NC(=O)CSC(=S)N1CCCC1)c1ccc(S(N)(=O)=O)cc1 (stereo not shown) | 9.49 |
| CCOc1cc2[nH]c(=O)n(CCCCC(=O)NCc3ccco3)c(=O)c2cc1OCC | 8.99 |
| CS(=O)(=O)N1CCN(C(=O)c2cc(-c3cccnc3)nc3ccc(Br)cc23)CC1 | 9.01 |
| Cc1cccc(NC(=S)N2CCN(c3ccc(F)cc3)CC2)c1 | -6.29 |
| O=C1C2C3C=CC(C4CC34)C2C(=O)N1Cc1ccccc1 (stereo not shown) | 18.8 |
| CCOc1ccc(CNC(=O)CCC(=O)n2nc(C)c3ccccc32)cc1 | 11 |
| COc1ccccc1S(=O)(=O)Nc1cc(C)nn1-c1ccc(C)cc1 | 11.4 |
